# Test results taken from PubChem BioAssay AID504832 (National Center for Advancing Translational Sciences (NCATS), 2011).
# In all, about 310,000 compounds went through this assay and about 18,000 (5.8%) were called active. This list was built around the results that the source calls inconclusive (neither active nor inactive); the mix of calls is not that of the screen. Calls follow the shape of the dose curve; as a rule, active = well fitted inhibition curve with a large enough effect; inconclusive = small, poorly fitted or top-dose-only effect, or another doubt; inactive = no such curve, though single readings can be large or run the other way. Potencies of inconclusive entries are left out as doubtful fits.
# Test: Primary qHTS for delayed death inhibitors of the malarial parasite plastid, 48 hour incubation
# Conditions: P. falciparum luciferase growth in erythrocytes; series mostly up to 28.7 µM
# Procedure, shortened: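 Luciferase-expressing P. falciparum in infected erythrocytes (2% hematocrit, 0.1% parasitemia final) in RPMI 1640/0.5% Albumax were exposed to compound for 48 hours at 37 C, 5% CO2; growth read as luminescence.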
# Potency is read from the fitted curve at half-maximal effect; tags tell the direction and shape of the fitted curve.
row,Structure (SMILES),Potency
1,Cc1cc2oc(=O)cc(CN3CCN(S(=O)(=O)c4cccs4)CC3)c2cc1C(C)C,active: 10.4 µM
2,Cc1ccc(N(CC(=O)N2CCn3c2nc2ccccc23)S(=O)(=O)c2c(C)n[nH]c2C)cc1,"inconclusive [inhibitor, partial curve, poor fit]"
3,COc1ccc(OC)c(/C=N/NC(=O)c2cc3c(OC)cccc3[nH]2)c1,inactive
4,CCOc1ccc(NC(=O)CN(C)C(=O)c2cc(C)nc3ccccc23)cc1OCC,active: 14.7 µM
5,Cc1cccc(NC(=O)NNC(=O)c2c(Cl)c(C)nn2C)c1,inactive
6,Cc1cccc(NS(=O)(=O)c2cccc(C(=O)NCC(c3ccco3)N(C)C)c2)c1 (configuration not stated),"inconclusive [inhibitor, single point]"
7,Cc1cccc(N2C(=O)NC(=O)/C(=C/c3ccc([N+](=O)[O-])o3)C2=O)c1,inactive
8,CC(Sc1ccc([N+](=O)[O-])cn1)C(=O)Nc1nccs1 (configuration not stated),"inconclusive [inhibitor, single point]"
9,COc1cc(OC)cc(C(=O)N2CCC(C(=O)c3ccc(F)cc3)CC2)c1,"inconclusive [inhibitor, partial curve, poor fit]"
10,CC(=O)N1N=C(c2cccs2)CC1c1ccc(C)o1 (configuration not stated),"inconclusive [inhibitor, single point]"
11,CCC(C)(C)NC(=O)C(c1ccc(O)cc1)N(CCOC)C(=O)CCC(=O)Nc1nccs1 (configuration not stated),active: 2.94 µM
12,Cc1cc2occ(CC(=O)N(C)CC(=O)Nc3ccccc3C(F)(F)F)c2cc1C,inactive
13,CCCCCCNS(=O)(=O)c1ccc(NC(=O)C2CCCO2)cc1 (configuration not stated),inactive
14,CCn1nnc2cc(C(=O)Nc3cc(OC)cc(OC)c3)ccc21,inactive
15,Oc1cccc(C(O)CNCc2ccc(OCc3ccc(Cl)cc3Cl)cc2)c1 (configuration not stated),"inconclusive [inhibitor, full curve, poor fit]"
16,COc1ccc(-c2nnc3ccc(SCC(=O)NCc4ccco4)nn23)cc1,"inconclusive [inhibitor, single point]"
17,CCC(=O)N(C)CCc1cc2c(c(OC)c1/C=N/NC(=O)[C@H]1C[C@@H]1c1ccccc1)OCO2,"inconclusive [inhibitor, single point]"
18,Cc1ccnc(NC(=O)C2CCN(S(=O)(=O)c3c(C)c(C)cc(C)c3C)CC2)c1,"inconclusive [inhibitor, single point]"
19,CS(=O)(=O)n1nc(OC(=O)c2cccs2)cc1N,"inconclusive [inhibitor, single point]"
20,CC(OC(=O)CCc1ccccc1)C(=O)Nc1ncc(Cl)cc1Cl (configuration not stated),inactive
21,COc1cccc([C@@H]2Oc3ccc(OC)cc3C(=O)[C@H]2OC(=O)Nc2cc(OC)c(OC)c(OC)c2)c1,"inconclusive [inhibitor, single point]"
22,O=C(c1ccc(N2CCCC2)c([N+](=O)[O-])c1)N1CCN(S(=O)(=O)c2ccccc2)CC1,active: 10.4 µM
23,Cc1ccc[n+](C(C)C(=O)c2ccc(Cl)cc2)c1 (configuration not stated),"inconclusive [inhibitor, partial curve]"

row,Structure (SMILES),Potency
1,O=C(C1=C[C@@H](c2csc3ccccc23)C[C@@H](OCc2ccc(CO)cc2)O1)N1CCN(Cc2ccccc2)CC1,"inconclusive [inhibitor, partial curve, poor fit]"
2,Cc1nonc1-c1csc(N)n1,inactive
3,COc1cccc(-c2csc(N3CCN(Cc4ccccc4)CC3)n2)c1,"inconclusive [inhibitor, single point]"
4,CCOC(=O)CN(C(=O)COc1nc(-c2ccccc2)cc(C)c1C#N)c1ccccc1,"inconclusive [inhibitor, single point]"
5,Cc1c(C(O)CN2CCN(Cc3ccc4c(c3)OCO4)CC2)c2ccccc2n1C (configuration not stated),"inconclusive [inhibitor, single point]"
6,O=C(OCc1nnc(-c2ccc([N+](=O)[O-])cc2)o1)C1CCN(C(=O)c2ccc(F)cc2)CC1,inactive
7,CC(C(=O)NCC(=O)Nc1ccc(F)c(F)c1F)N1CCN(c2ccc(O)cc2)CC1 (configuration not stated),"inconclusive [inhibitor, single point]"
8,Cc1ccc2c(c1)N(CC(=O)N(Cc1ccc3c(c1)OCO3)CC1CCCO1)C(=O)C(C)O2 (configuration not stated),"inconclusive [inhibitor, single point]"
9,C=CCNc1ncnc2c1[nH]c1ccc(Cl)cc12,"inconclusive [inhibitor, single point]"
10,COc1cc2c(cc1OC)CN(C(=O)c1nn(Cc3ccccc3)c(=O)c3ccccc13)CC2,active: 10.4 µM
11,CC(=O)c1cccc(N(C(=O)c2cnccn2)C(C(=O)NCc2ccccc2)c2ccco2)c1 (configuration not stated),"inconclusive [inhibitor, single point]"
12,COc1ccc(F)cc1S(=O)(=O)N1CCCN(S(=O)(=O)c2cc(F)ccc2OC)CC1,"inconclusive [inhibitor, single point]"
13,CC(=O)Nc1ccc(C(=O)N2CCN(S(=O)(=O)c3ccc4c(c3)OCCCO4)CC2)cc1,"inconclusive [inhibitor, single point]"
14,O=C(C1CCN(c2nnc(-n3cccc3)s2)CC1)N1CCN(Cc2ccc3c(c2)OCO3)CC1,"inconclusive [inhibitor, single point]"
15,Cc1cc(OCC(=O)N[C@@H](CSCc2ccccc2)C(=O)O)c2c(C)c(C)c(=O)oc2c1,"inconclusive [inhibitor, single point]"
16,O=C1CCNc2c(Cl)cc(Cl)cc21,inactive
17,COc1cccc(CN2CCNC(=O)C2CC(=O)NC2CCCCCCC2)c1 (configuration not stated),"inconclusive [inhibitor, single point]"
18,O=C(NN1C(=O)C2C3C=CC(C4CC34)C2C1=O)c1cccc(Br)c1 (configuration not stated),"inconclusive [inhibitor, single point]"
19,CC(c1ccccc1)N1CC(C(=O)NC2CCCC2)CC1=O (configuration not stated),inactive
20,CCN1CCN(Cc2ccc(NC(=O)c3cc(NC(=O)c4cncc(-c5cccs5)c4)cc(OC)c3)cc2C(F)(F)F)CC1,"inconclusive [inhibitor, full curve, poor fit]"
21,CC1=C(C(=O)Nc2ccc(F)cc2)C(c2cccc(C)c2)n2nc(CCCO)nc2N1 (configuration not stated),inactive
22,O=C(COc1cccc(C(F)(F)F)c1)Nc1ccc(S(=O)(=O)N2CCCCC2)cc1,"inconclusive [inhibitor, single point]"
23,CC(=O)c1cccc(NC(=O)C(=O)Nc2cccc3ccccc23)c1,inactive

row,Structure (SMILES),Potency
1,O=C(CCCN1C(=O)/C(=C/c2ccccc2Cl)SC1=S)Nc1cccnc1,"inconclusive [inhibitor, partial curve, poor fit]"
2,OC(CN1C2=NCCN2c2ccccc21)c1ccc(Br)cc1 (configuration not stated),"inconclusive [inhibitor, single point]"
3,Cc1cccc(NC(=O)COC(=O)CSc2ccccc2)c1C,"inconclusive [inhibitor, single point]"
4,Cc1ccc(-c2nn3c(-c4ccco4)nnc3c3ccccc23)cc1S(=O)(=O)NCC1CCCO1 (configuration not stated),"inconclusive [inhibitor, full curve, poor fit]"
5,FC(F)(F)COc1ccc(-n2ccnc2)nn1,inactive
6,CCOC(=O)c1ccc(NC(=S)Nc2cccc(N)n2)cc1,"inconclusive [inhibitor, partial curve, poor fit]"
7,COc1cc(OC)cc(C(=O)NC(=S)N2CCN(c3ccc(C(F)(F)F)cc3[N+](=O)[O-])CC2)c1,"inconclusive [inhibitor, single point]"
8,CCn1c(CNc2nc(-c3ccccc3)cs2)nnc1SCC(=O)NCc1ccco1,"inconclusive [inhibitor, partial curve, poor fit]"
9,Cc1ccc(NC(=O)CNC(=O)c2ccco2)c(Cl)c1,inactive
10,O=C1c2ccccc2C(=O)N1CCCCN(C(=O)c1cc2ccccc2oc1=O)c1ccc(F)cc1F,inactive
11,Cc1ccc(-n2cc3c(=O)n(C)c(=O)n(C)c3c2)cc1C,inactive
12,CC(C)c1ccc(NC(=O)CCNC(=O)Cn2ccc3ccccc3c2=O)cc1,inactive
13,CCN(CC)C(=O)c1cc(-c2ccccc2OC)on1,inactive
14,Cc1cccc(C)c1NC(=O)C(C)N1CCCCC1 (configuration not stated),inactive
15,COc1ccc2cc(C(C)c3nc4ccccc4c(=O)n3N)ccc2c1 (configuration not stated),"inconclusive [inhibitor, full curve, poor fit]"
16,O=C(Cc1c[nH]c2ccccc12)OCCOC(=O)Cc1c[nH]c2ccccc12,"inconclusive [inhibitor, single point]"
17,CC1CCCC(NC(=O)c2ccc(COc3ccccc3)o2)C1C (configuration not stated),"inconclusive [inhibitor, single point]"
18,O=S1(=O)CC2N=C(N(Cc3ccc(F)cc3Cl)c3ccccc3F)SC2C1 (configuration not stated),"inconclusive [inhibitor, partial curve, poor fit]"
19,C[C@H]1NC(=O)[C@@]2(C)[C@@H](c3ccccc3)[C@H]3COc4ccccc4[C@H]3N2C1=O,inactive
20,COc1cccc2[nH]c3c(N4CC(C)CC(C)C4)ncnc3c12 (configuration not stated),"inconclusive [inhibitor, full curve, poor fit]"
21,CCCCN(Cc1cc2cc(OC)ccc2[nH]c1=O)S(=O)(=O)c1ccc(C)cc1,"inconclusive [inhibitor, single point]"
